Source: PMC4333420, “REV7 is essential for DNA damage tolerance via two REV3L binding sites in mammalian DNA polymerase ζ” (Nucleic Acids Research, 2015)
Substitutions are numbered along the chain they refer to. No constants are given. Whether binding was seen depends on the method and setting. For part of these data: Binding seen in cells or lysates may run through a third protein. Some binding calls cover weakened binding; strength is not graded here. For part of these data: Tags and fused reporters may be left off the sequences shown.

The chains behind the UniProt entries cited, without tags or fusion partners.
UniProt Q9UI95: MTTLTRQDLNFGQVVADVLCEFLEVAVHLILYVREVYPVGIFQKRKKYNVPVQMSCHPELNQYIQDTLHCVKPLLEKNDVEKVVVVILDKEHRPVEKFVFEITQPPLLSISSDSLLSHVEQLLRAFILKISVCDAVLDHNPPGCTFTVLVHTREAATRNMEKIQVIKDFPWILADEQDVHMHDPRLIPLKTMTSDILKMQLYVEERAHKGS

Legend:
[1] = biological target: T1, FH-REV3L 1974–3130 (human) (UniProt O60673); test: co-IP; FLAG antibody beads on lysates of 293T cells transfected with FH-REV3L constructs (48 h); 4 h at 4°C; washed with 0.1B; blot for endogenous REV7
T1 sequence: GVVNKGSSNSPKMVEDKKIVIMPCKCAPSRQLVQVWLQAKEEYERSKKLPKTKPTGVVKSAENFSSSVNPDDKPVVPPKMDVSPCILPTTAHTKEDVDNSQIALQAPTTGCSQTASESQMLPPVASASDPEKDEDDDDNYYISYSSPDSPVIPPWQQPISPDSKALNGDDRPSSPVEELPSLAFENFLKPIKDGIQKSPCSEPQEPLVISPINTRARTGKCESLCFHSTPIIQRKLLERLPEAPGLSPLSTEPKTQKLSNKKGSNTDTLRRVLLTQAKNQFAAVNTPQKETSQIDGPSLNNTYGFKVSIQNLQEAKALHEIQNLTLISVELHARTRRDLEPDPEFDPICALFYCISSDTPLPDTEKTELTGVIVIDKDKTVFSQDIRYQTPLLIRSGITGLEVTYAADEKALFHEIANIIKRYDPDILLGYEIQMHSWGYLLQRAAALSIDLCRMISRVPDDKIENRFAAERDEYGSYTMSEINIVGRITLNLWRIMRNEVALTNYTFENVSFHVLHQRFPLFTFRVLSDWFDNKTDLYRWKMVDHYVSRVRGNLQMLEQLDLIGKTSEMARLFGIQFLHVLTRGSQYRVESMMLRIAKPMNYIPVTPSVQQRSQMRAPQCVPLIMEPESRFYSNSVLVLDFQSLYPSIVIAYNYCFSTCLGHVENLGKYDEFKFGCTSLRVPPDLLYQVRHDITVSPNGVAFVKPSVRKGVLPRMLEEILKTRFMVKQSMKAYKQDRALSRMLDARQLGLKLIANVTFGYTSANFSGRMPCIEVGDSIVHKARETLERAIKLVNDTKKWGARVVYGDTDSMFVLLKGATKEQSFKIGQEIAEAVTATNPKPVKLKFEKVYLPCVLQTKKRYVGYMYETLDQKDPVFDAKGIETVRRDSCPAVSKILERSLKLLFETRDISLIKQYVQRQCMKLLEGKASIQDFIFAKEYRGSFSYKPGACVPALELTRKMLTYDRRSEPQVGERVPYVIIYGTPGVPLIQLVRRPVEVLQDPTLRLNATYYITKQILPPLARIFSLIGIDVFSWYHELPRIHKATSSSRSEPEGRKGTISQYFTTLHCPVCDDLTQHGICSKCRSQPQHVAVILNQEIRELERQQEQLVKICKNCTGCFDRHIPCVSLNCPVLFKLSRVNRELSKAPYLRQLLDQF

[2] = biological target: FH-REV3L (P1880A, P1885A) (human) (UniProt O60673); test: as above
[3] = biological target: FH-REV3L (P1996A, P2001A) (human) (UniProt O60673); test: as above
[4] = biological target: T2, FH-REV3L 2000–3130 (human) (UniProt O60673); test: as above
T2 sequence: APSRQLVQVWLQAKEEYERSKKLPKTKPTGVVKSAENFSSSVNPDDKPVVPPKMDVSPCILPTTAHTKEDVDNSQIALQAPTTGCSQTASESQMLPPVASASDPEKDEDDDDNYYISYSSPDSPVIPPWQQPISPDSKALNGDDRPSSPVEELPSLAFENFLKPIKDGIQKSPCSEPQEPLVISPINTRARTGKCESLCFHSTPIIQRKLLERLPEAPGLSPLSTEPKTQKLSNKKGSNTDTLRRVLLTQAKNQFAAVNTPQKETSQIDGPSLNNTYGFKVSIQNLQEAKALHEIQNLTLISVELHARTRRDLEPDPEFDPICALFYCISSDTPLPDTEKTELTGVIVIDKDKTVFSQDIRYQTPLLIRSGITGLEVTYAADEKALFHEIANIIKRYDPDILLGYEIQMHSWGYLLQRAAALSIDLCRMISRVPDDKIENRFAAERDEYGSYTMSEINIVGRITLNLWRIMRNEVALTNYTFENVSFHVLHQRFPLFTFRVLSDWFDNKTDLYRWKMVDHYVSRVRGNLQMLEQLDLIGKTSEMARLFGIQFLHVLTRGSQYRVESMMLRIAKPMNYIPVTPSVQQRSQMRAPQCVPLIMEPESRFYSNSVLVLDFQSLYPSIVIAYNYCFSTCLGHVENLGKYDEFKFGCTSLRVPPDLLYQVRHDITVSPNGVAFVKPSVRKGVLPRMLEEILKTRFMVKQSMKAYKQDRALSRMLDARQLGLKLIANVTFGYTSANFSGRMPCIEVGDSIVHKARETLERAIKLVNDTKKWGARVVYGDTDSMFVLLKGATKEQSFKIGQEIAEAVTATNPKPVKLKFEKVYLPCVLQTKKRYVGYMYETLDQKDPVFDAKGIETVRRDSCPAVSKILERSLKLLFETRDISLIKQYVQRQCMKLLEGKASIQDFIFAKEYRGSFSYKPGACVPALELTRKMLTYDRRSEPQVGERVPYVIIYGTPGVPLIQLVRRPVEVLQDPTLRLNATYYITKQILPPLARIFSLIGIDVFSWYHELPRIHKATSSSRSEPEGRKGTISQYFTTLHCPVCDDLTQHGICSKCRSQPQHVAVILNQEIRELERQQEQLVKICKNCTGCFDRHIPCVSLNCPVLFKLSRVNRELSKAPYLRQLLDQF

[5] = biological target: FH-REV3L (P1880A, P1885A, P1996A, P2001A) (human) (UniProt O60673); test: as above
[6] = biological target: FH-REV3L (N-terminal FLAG-HA tagged full-length human REV3L) (human) (UniProt O60673); test: as above
[7] = biological target: T3, GFP-REV3L 1974–1999 (human) (UniProt O60673); test: co-IP; anti-GFP agarose on lysates of 293T cells transfected with GFP-REV3L fragments; 4 h at 4°C; washed with 0.1B; blot for endogenous REV7
T3 sequence: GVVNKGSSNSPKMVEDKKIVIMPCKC

[8] = biological target: T4, GFP-REV3L 1974–2025 (P1996A, P2001A) (human) (UniProt O60673); test: as above
T4 sequence: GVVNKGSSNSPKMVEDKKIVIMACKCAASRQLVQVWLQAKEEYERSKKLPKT

[9] = biological target: T5, GFP-REV3L 1974–2075 (human) (UniProt O60673); test: as above
T5 sequence: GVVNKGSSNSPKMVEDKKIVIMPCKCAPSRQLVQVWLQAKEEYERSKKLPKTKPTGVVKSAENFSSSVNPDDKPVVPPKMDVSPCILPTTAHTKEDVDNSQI

[10] = biological target: T6, GFP-REV3L 1974–2025 (human) (UniProt O60673); test: as above
T6 sequence: T4 sequence with A23P, A28P

[11] = biological target: T7, GST-REV3L 1974–1999 (human) (UniProt O60673); test: pull-down; GST-fusion REV3L fragment, His-REV7 and Glutathione-Sepharose 4B beads, 4°C for 4 h in 500 μl of 0.1B; blot with anti-His and anti-GST; both purified
T7 sequence: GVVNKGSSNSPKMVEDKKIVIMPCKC

[12] = biological target: T8, GST-REV3L 1974–2025 (P1996A, P2001A) (human) (UniProt O60673); test: as above
T8 sequence: T4 sequence

Row | binding [1] | binding [2] | binding [3] | binding [4] | binding [5] | binding [6] | binding [7] | binding [8] | binding [9] | binding [10] | binding [11] | binding [12] | Substance
1 | binds | binds | binds | no binding | no binding | binds | no binding | no binding | binds | binds | – | – | REV7 (MAD2L2), endogenous in human 293T cells (from UniProt Q9UI95 1-211)
2 | – | – | – | – | – | – | – | – | – | – | no binding | no binding | His-REV7 (from UniProt Q9UI95 1-211)
